Data on 1 molecule can be found in patent publication US20220332848A1 (published 2022).

The term EC50 denotes the concentration needed to bring the measured effect to its halfway point.

One test addresses human CTLA-4 (human, UniProt P16410 36-223). Description: FACS binding CHO-K1 cells expressing human CTLA-4. Background: A flow cytometer gives signals particle by particle.
A further test addresses CD47 (UniProt Q08722). Put plainly: FACS binding CHO-K1 cells expressing CD47.

human CTLA-4, sequence (P16410 36-223): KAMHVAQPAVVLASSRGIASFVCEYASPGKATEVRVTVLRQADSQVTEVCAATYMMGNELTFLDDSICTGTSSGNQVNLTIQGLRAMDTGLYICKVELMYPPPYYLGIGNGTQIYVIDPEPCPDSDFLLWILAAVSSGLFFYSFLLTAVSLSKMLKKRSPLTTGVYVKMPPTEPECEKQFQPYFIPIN
CD47, sequence (Q08722 19-323): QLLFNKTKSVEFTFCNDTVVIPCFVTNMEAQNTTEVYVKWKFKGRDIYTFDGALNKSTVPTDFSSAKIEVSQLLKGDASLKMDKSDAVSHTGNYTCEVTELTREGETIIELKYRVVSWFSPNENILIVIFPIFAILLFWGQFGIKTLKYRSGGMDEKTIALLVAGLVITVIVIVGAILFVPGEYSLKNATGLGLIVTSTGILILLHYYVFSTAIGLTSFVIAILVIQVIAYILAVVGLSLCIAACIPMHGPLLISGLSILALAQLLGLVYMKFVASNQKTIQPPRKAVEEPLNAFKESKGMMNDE

B1: Fc fusion protein sdAb-CTLA4-IgG4PE (Fc fusion)
chain: EVQLVESGGGLVQPGGSLRLSCAASGYTYSRHCLGWFRQAPGKGREAVSTIDSDGSTSYADSVKGRFTISRDNAKNTLYLQMNSLRPEDTAVYYCAIGPNPRYCSGAPNTRGAEHYFGYWGQGTLVTVSS[letters of human IgG4 Fc with changes left out]
B1: the EC50 is 2.21 nM with human CTLA-4 and roughly 1.4 nM with CD47.
